Test results reported in PubChem BioAssay AID1508642 (National Center for Advancing Translational Sciences (NCATS), 2021).
Among all 43,000 compounds or so, about 200 (0.47%) were called active. Another 12% or so got no clear call; they are omitted. Calls follow the shape of the dose curve; as a rule, active = well fitted cell-killing curve with a large enough effect; inconclusive = small, poorly fitted or top-dose-only effect, or effect the other way; inactive = flat fitted curve, though single readings scatter. This is one part of the list.

Experiment: Cell viability qHTS assay in S16 Pmp22-F2sN cells; also: nearly all actives have a fitted effect of over 65% in size
Conditions: S16 Pmp22-F2sN Schwann cells (luciferase reporters placed in the Pmp22 gene) viability, CellTiter-Glo, 24 h; series mostly up to 57.5 µM; activity change, negative = cytotoxicity: at the top concentration
Method in brief: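 CellTiter-Glo counter-screen, qHTS, 1536-well. Cells: S16(c9) Pmp22-F2sN, 500-1,000/well in DMEM + 10% FBS. Cpd 23 nL pin transfer, 24 h, 37C/5% CO2. Read: luminescence, CCD imager.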
% is scaled to controls: 0 for no effect and ±100 for the full control effect.

Structure (SMILES)	activity change, negative = cytotoxicity
O=c1oc2cc(O)ccc2cc1-c1nnc(Nc2ccccc2F)s1	inactive: 10.3%
Cc1c(-c2nc(-c3ccccc3F)no2)nnn1-c1cc(F)ccc1F	inactive: 0.278%
CCCNC(=O)C(C)n1nc(C)c2c(C)n(-c3ccccc3)nc2c1=O (stereo not drawn)	inactive: -0.823%
Cc1ccc(CNC(=O)CSc2c3c(nc4cc(Cl)ccc24)CCCC3)cc1	inactive: -1.21%
COc1cccc(OCc2cc(=O)n3c(-c4ccccc4)csc3n2)c1	inactive: 6.46%
COc1nc(-c2ccccc2)ccc1-c1noc(-c2ccccc2Br)n1	inactive: -9.44%
CCN1CCN(C(=O)Cn2c(-c3cccs3)cc3ccccc32)CC1	inactive: 1.21%
CCOc1ccccc1CNC(=O)CCc1c(C)nn(-c2ccc(N3CCOCC3)nn2)c1C	inactive: -2.38%
COc1ccc(N2CCN(S(=O)(=O)CCNC(=O)COc3ccccc3F)CC2)cc1	inactive: -1.84%
CCN(CC)S(=O)(=O)c1ccc(C(=O)NCCSc2c(-c3ccc(C)cc3)[nH]c3ccccc23)cc1	inactive: -27.8%
COC(=O)c1cccc(NC(=O)c2nsc3ccccc23)c1	inactive: -15.6%
COc1ccc(CCNC(=O)c2ccc3c(c2)N(Cc2ccccc2F)C(=O)c2ccccc2S3=O)cc1OC (stereo not drawn)	inactive: 0.471%
COc1ccc(CNC(=O)Cn2nc(N3CCN(c4ccccc4)CC3)ccc2=O)c(OC)c1	inactive: 1.73%
COc1ccc(S(=O)(=O)c2c(SC)nn(CC(=O)Nc3cccc(C)c3C)c2N)cc1	inactive: -0.53%
Cc1ccc2c(c1)NC(=O)c1cccnc1O2	inactive: 0.538%
Cc1ccc(-c2nc(CS(=O)(=O)CC(=O)NCCc3ccccc3)c(C)o2)cc1	inactive: 0.237%
CCc1ccc(CN(Cc2ccco2)C(=O)COc2ccc(Cl)c(C)c2)cc1	inactive: -10.7%
CCn1cc(C(=O)NCc2ccc(C)cc2)c(=O)c2cc(S(=O)(=O)N(C)C3CCCCC3)ccc21	inactive: -11.9%
CCN(CC)c1nc2c(S(=O)(=O)c3cccc(Cl)c3)nnn2c2ccsc12	inactive: -20.1%
CC1=C(C(=O)Nc2ccccc2)C(c2ccncc2)n2nc(SCc3ccccc3F)nc2N1 (stereo not drawn)	inactive: 11.5%
O=C(Nc1ccc(OCc2cc(=O)n3ccccc3n2)cc1)c1ccccc1Cl	inactive: 3.53%
Cc1cc(C)n(-c2nc3cc(Cl)ccc3nc2Nc2ccc(CC(=O)O)cc2)n1	inactive: 1.82%
COC(=O)c1c(-c2cccs2)csc1NC(=O)c1ccc(OC)c(OC)c1	inactive: -7.55%
Cc1cccc(NC(c2ccccc2C)c2ccc3ccc(C)nc3c2O)n1 (stereo not drawn)	inactive: -22.6%
COc1ccccc1CNC(=O)C1CCN(S(=O)(=O)c2ccc3c(ccn3C)c2)CC1	inactive: -2.16%
CCCCn1c(NCc2cc(Br)ccc2O)nc2ccccc21	inactive: 6.59%
COc1ccc(NC(=O)C2(c3cccs3)CCOCC2)cc1Cl	inactive: -2.06%
COC(=O)c1ccccc1NC(=O)c1cc2nc(-c3ccccc3)cc(-c3ccccc3)n2n1	inactive: 3.92%
